# Laboratory results as given in PubChem BioAssay AID493208 (National Center for Advancing Translational Sciences (NCATS), 2011).
# Hit rate of the full screen: of about 44,000 compounds, about 340 (0.77%) were called active. Roughly 5% stayed inconclusive and do not appear here. Calls come from the whole dose curve; as a rule, active = well fitted inhibition curve with a large enough effect; inconclusive = small, poorly fitted or top-dose-only effect; inactive = flat fitted curve, though single readings scatter. The list shows a part of the results.
# Experiment: Acumen qHTS Assay for Inhibitors of the mTORC1 Signaling Pathway in MEF (Tsc2-/-, p53-/-) Cells: Sytravon; note: nearly all actives have a fitted effect of over 50% in size;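 for activity change, negative = inhibition: plate controls were DMSO for no effect and rapamycin for full effect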
# Details: phospho-rpS6 immunofluorescence/PI, 24 h; series mostly up to 38.3 µM; activity change, negative = inhibition: at the top concentration
# Outline: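 Cell-based qHTS: Tsc2-/- p53-/- MEF, 24 h cpd, 37 °C; fix/perm, anti-phospho-S6 Alexa-488 + PI; Acumen 488 nm scan; pS6/PI ratio, % positive cells; rapamycin 7.5 nM = inhibition ref; PI count = viability.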
# Potency is the fitted concentration of half-maximal effect.
SMILES,"activity change, negative = inhibition",Potency
CCN1CCN(CCCNC(=O)Cn2c(-c3cccs3)cc3cc(Cl)ccc32)CC1,inactive: -8.49%,–
COc1ccc(-c2nc(CNC(=O)Nc3ccccc3)c(C)o2)c(OC)c1,inactive: 17.4%,–
O=c1ccc(-c2ccccc2)nn1Cc1c(F)cccc1Cl,inactive: -2.41%,–
COc1ccccc1CNC(=O)CCc1c(C)c2cc3c(C)coc3cc2oc1=O,inactive: -10.3%,–
CCn1ccc2c(OCC(=O)Nc3ccc(OC)cc3OC)cccc2c1=O,inactive: -1.76%,–
CCn1cc(C(=O)NCCC(C)C)c(=O)c2cc(S(=O)(=O)N(C)C3CCCCC3)ccc21,inactive: 0.703%,–
CCC(=O)N1c2ccccc2CC1C(=O)NCCCN1CCN(c2ccc(OC)cc2)CC1 (stereo not given),inactive: 9.03%,–
CCCCOc1ccc(CNC(=O)c2cnc3sc(N4CCCC4)nn3c2=O)cc1,inactive: 0.0872%,–
Cc1c(Cl)cccc1NC(=O)C(=O)NCCc1csc2nc(-c3ccccc3F)nn12,inactive: -5.26%,–
CC1CCCCN1c1cc2c(cc1F)c(=O)c(S(=O)(=O)c1ccccc1)cn2Cc1ccccc1 (stereo not given),inactive: -3.42%,–
O=C(Cn1c(-c2cccs2)cc2cc(F)ccc21)NCCc1ccc(Cl)cc1,inactive: -4.85%,–
O=S(=O)(Nc1ccc(O)c(Sc2nc3ccccc3s2)c1)c1cc(Cl)ccc1Cl,inactive: -11.8%,–
Cc1nc2c3cccnc3nn2c(C)c1CCC(=O)NCc1ccccc1,inactive: -16.4%,–
Cc1ccc(C)c(NC(=O)c2cc(S(=O)(=O)NCc3ccccc3)ccc2F)c1,inactive: -7.67%,–
CCN(CC)S(=O)(=O)c1ccc2c(c1)nc(CN(C)C(=O)Nc1ccc(C)c(Cl)c1)n2C,inactive: 20.7%,–
COc1ccc(Nc2ncc(C(=O)Nc3cccc(Cl)c3)c3ccccc23)cc1,inactive: -0.526%,–
CCc1ccc(NC(=O)C(=O)NCC(c2ccc3c(c2)OCO3)N2CCN(C)CC2)cc1 (stereo not given),inactive: -10.4%,–
CC(C)CCNC(=O)c1cnc2sc(N3CCCCCC3)nn2c1=O,inactive: -3.24%,–
COc1ccc(-n2nc3c(N4CCC(C(=O)N5CCC(C)CC5)CC4)nnc(C)c3c2C)cc1,inactive: -9.65%,–
COc1ccc(CNC(=O)c2ccc(Cn3c(=O)c4cccn4c4cccnc43)cc2)c(OC)c1,inactive: 2.51%,–
Cc1ccc(O)c(NC(=O)c2cc(-c3ccc(F)cc3)no2)c1,inactive: 1.1%,–
CCOc1ccc(-n2ccnc2SCC(=O)Nc2cc(C)ccc2C)cc1,inactive: -1.35%,–
O=C(C1CCC1)N1CCCc2cc(S(=O)(=O)N3CCN(c4cccc(Cl)c4)CC3)ccc21,inactive: 2.26%,–
Cc1ccc(C)c(NC(=O)C(=O)NCCCN2CCOCC2)c1,inactive: -4.8%,–

SMILES,"activity change, negative = inhibition",Potency
Cc1onc(-c2ccccc2Cl)c1C(=O)Oc1ccc(Cl)cc1Cl,inactive: 6.39%,–
CCOc1ccccc1NC(=O)COC(=O)CC(C)(C)CC1=NS(=O)(=O)c2ccccc2N1,inactive: -19%,–
O=C(NCCCN1CCN(c2ccccc2)CC1)c1sc2ncccc2c1-n1cccc1,inactive: 1.32%,–
CCOc1ccc(CCNC(=O)c2cnc3c(-c4ccc(F)cc4)c(C)nn3c2C)cc1,inactive: 1.21%,–
COc1ccc(N(C(=O)c2ccccc2C)S(=O)(=O)c2ccc(Cl)cc2)cc1,inactive: -4.08%,–
COc1cc(S(=O)(=O)NCCc2c(C)[nH]c3ccc(C)cc23)ccc1Br,inactive: 1.22%,–
Nc1ncc(S(=O)(=O)NCc2ccccc2)cn1,inactive: -1.11%,–
CN1C(C(=O)Nc2cccc(O)c2)=CC(c2cccs2)=NS1(=O)=O,inactive: 5.9%,–
COc1ccc(C(=O)c2cn(Cc3ccccc3)c3ccccc3c2=O)cc1OC,inactive: -3.85%,–
O=C(NCCc1nc2ccccc2n1Cc1ccccc1F)c1ccc(F)cc1,inactive: 2.42%,–
COc1ccc(CN(C)c2ccc(-c3nc(-c4ccc(OC)c(OC)c4)no3)cc2[N+](=O)[O-])cc1,inactive: 0.251%,–
CCOc1ccc2nc(Cl)c(C3CC(c4ccc(C)cc4)=NN3C(=O)CCC(=O)O)cc2c1 (stereo not given),inactive: 4.31%,–
Cc1cccc(N2CCN(C(=O)C3CCN(C(=O)c4cc5sccc5n4C)CC3)CC2C)c1 (stereo not given),inactive: -0.0402%,–
Cc1c(Cl)cccc1NC(=O)CCS(=O)(=O)c1ccc2c(c1)CC(C)N2C(=O)C1CC1 (stereo not given),inactive: 0.0211%,–
CCC(C)S(=O)(=O)c1oc(-c2cccs2)nc1S(=O)(=O)c1ccccc1 (stereo not given),–,active: 1170 nM
COc1cn(CC(=O)Nc2cc(C)cc(C)c2)c(CN2CCCCC2)cc1=O,inactive: -9.75%,–
CCOc1ccccc1CNCc1c(C(=O)O)c(C)n(Cc2ccc(C)cc2)c1C,inactive: 0.909%,–
CN1CCc2nc3sc(C(=O)c4ccc(F)cc4)c(N)c3cc2C1,inactive: -18.2%,–
COc1cccc(-c2nnc(SCC(=O)N(C)C3CCCCC3)o2)c1,inactive: -8.61%,–
CN1C(=O)c2cccc3c(S(=O)(=O)Nc4cccc(C(=O)O)c4)ccc1c23,inactive: -1.59%,–
CCOc1ccc(NC(=O)CN(Cc2ccccc2)S(=O)(=O)c2ccc3nc(C)sc3c2)cc1,inactive: -16.2%,–
CCOc1ccc(CCNC(=O)Cn2c(-c3cccs3)cc3ccccc32)cc1,inactive: -7.2%,–
CN(c1ccc(F)cc1)S(=O)(=O)N1CCCC(C(=O)NCc2ccccc2Cl)C1 (stereo not given),inactive: -24%,–
CCN(CC)S(=O)(=O)c1ccc(OC)c(NC(=O)c2sc3ccccc3c2Cl)c1,inactive: 5.65%,–

SMILES,"activity change, negative = inhibition",Potency
Cc1ccc2c(c1)c1c(c(=O)n(Cc3ccccc3)c(=O)n1Cc1ccccc1F)n2C,inactive: -0.907%,–
Cc1cccc(NC(=O)c2oc3ccccc3c2NC(=O)c2cc(=O)c3ccccc3o2)c1,inactive: 7.81%,–
CCOc1ccc(N2CC(NC(=O)c3ccc(Cl)cc3)CC2=O)cc1 (stereo not given),inactive: -7.1%,–
CCOC(=O)N1CCc2c(sc3c2c(=O)n(Cc2ccccc2)c(=O)n3CC(=O)Nc2ccc(F)cc2)C1,inactive: -7.17%,–
CNC(=O)CN1C(=O)COc2ccc(S(=O)(=O)N3CCCCCC3)cc21,inactive: 0.506%,–
Fc1ccc(C(c2nnc(-c3ccccc3)o2)N2CCN(c3cccc(Cl)c3)CC2)cc1 (stereo not given),inactive: -3.31%,–
CCc1ccccc1NC(=O)CSc1nncn2c1cc1oc(C)cc12,inactive: 2.87%,–
COc1ccc(CN2C(=O)C(NC(=O)c3cccc(C)c3)(C(F)(F)F)N=C2c2ccccc2)cc1 (stereo not given),inactive: 6.14%,–
Cn1c2ccccc2c2cnn(CC(=O)NCCCN3CCCCC3)c(=O)c21,inactive: -0.431%,–
CCOc1ccc(NC(=O)CSc2cn(CCNC(=O)c3ccccc3F)c3ccccc23)cc1,inactive: -8.22%,–
CCOC(=O)C(CC)n1nnc2sc(-c3ccccc3)cc2c1=O (stereo not given),inactive: 1.25%,–
CC(=O)c1cccc(NC(=O)CSc2nnc3ccc(-c4ccc(Br)cc4)nn23)c1,inactive: -3.23%,–
O=C(NCCS(=O)(=O)N1CCN(c2ccc(F)cc2)CC1)C(c1ccccc1)c1ccccc1,inactive: -0.47%,–
Cc1ccc2oc(=O)c3cnn(CC(=O)N4CCN(c5ccc(F)cc5)CC4)c3c2c1,inactive: 2.06%,–
Cc1ccc(CNC(=O)CSc2nc3c(sc4ccccc43)c(=O)n2CCCOC(C)C)cc1,inactive: 0.165%,–
COc1ccc(OC)c(CCNC(=O)c2cc3c(s2)-c2c(C)cccc2OC3)c1,inactive: -8.39%,–
Cc1ccc(-n2c(=O)c3sc4ccccc4c3n(CC(=O)NC3CCCC3)c2=O)cc1C,inactive: -14.5%,–
Cc1ccc(NC(=O)Cn2c(=O)n(Cc3ccccc3)c(=O)c3sc4ccccc4c32)cc1,inactive: -17.7%,–
Cc1c(Cl)cccc1-c1ccc(CNCCSc2nnnn2-c2ccccc2)o1,inactive: -2.06%,–
CCS(=O)(=O)c1ncc(N(Cc2ccccc2)Cc2ccco2)c(C(=O)Nc2cccc(Cl)c2C)n1,inactive: 1.14%,–
COc1ccccc1C(=O)Nc1ccc2nc(SCC(=O)N(C)c3ccccc3)sc2c1,inactive: 1.07%,–
CCOc1ccc(NC(=O)C(Cc2ccccc2)NS(=O)(=O)c2ccc3c(c2)oc(=O)n3C)cc1 (stereo not given),inactive: -13.6%,–
CCN(CC)S(=O)(=O)c1ccc(NC(=O)CN(c2ccccc2)S(=O)(=O)N(C)C)cc1,inactive: 4.28%,–
O=C(CN1C(=O)C2(SCC(=O)N2c2cccc(Cl)c2)c2ccccc21)NCCc1ccccc1 (stereo not given),inactive: -3.07%,–

SMILES,"activity change, negative = inhibition",Potency
CCOc1ccc(NC(=O)c2c(Nc3ccccc3C)sc(C(=O)c3ccccc3)c2N)cc1,inactive: -3.29%,–
CCOc1ccc(CNC(=O)c2ccc3c(c2)c(C)c(C)n3Cc2ccccc2)cc1OC,inactive: -4.44%,–
Cc1ccc(-n2ncc(C(=O)N3CCN(c4cc(Cl)ccc4C)CC3)c2C2CCN(C(=O)OC(C)(C)C)CC2)cc1,inactive: -3.93%,–
COC(=O)c1ccc(Cl)cc1NC(=O)Nc1nnc(N2CCCC2)s1,inactive: -0.231%,–
COc1ccc(CCNC(=O)c2ccc3c(c2)N(Cc2ccccc2)C(=O)c2ccccc2S3=O)cc1OC (stereo not given),inactive: 0.617%,–
COc1ccc(CCn2c3c(c(=O)[nH]c2=O)C(NC(=O)c2ccc(Cl)cc2)(C(F)(F)F)C(=O)N3)cc1OC (stereo not given),inactive: 3.61%,–
COC(=O)CSc1ncc2c(n1)-c1ccccc1N(Cc1ccc(Cl)cc1)S2(=O)=O,inactive: 7.81%,–
COc1ccc(CNc2ncnc3c2nc2n3CCCC2)cc1,inactive: 2.53%,–
Cc1cccc(OCC(=O)Nc2ccccc2C(=O)OCc2cc(=O)n3ccsc3n2)c1,inactive: 0%,–
COc1cccc(NC(=O)CN2C(=O)c3cccc4cccc2c34)c1,inactive: -0.656%,–
Cn1ncc2c(Nc3cc(C(F)(F)F)ccc3Cl)ncnc21,inactive: 11.4%,–
CC(NC(=O)c1ccc2c(c1)N(Cc1ccc(Cl)cc1)C(=O)CS2)c1ccccc1 (stereo not given),inactive: -14.7%,–
CCN(c1cccc(C)c1)S(=O)(=O)c1cc(Br)cc2c1N(C(C)=O)C(C)C2 (stereo not given),inactive: 0.171%,–
COc1ccc2c(c1)c1c(c(=O)n(-c3ccccc3C)c(=O)n1Cc1cccc(C(F)(F)F)c1)n2C,inactive: 0.782%,–
CC(C)OC(=O)c1ccc(Cn2nnc3sc4c(c3c2=O)CCCC4)cc1,inactive: -2.03%,–
CCc1ccc(-n2nnc(-c3nc(-c4cccs4)no3)c2N)cc1,inactive: 0.254%,–
CC1CCN(C(=O)CSc2n[nH]c(-c3ccc(F)cc3)n2)CC1,inactive: -11.9%,–
CCCN(c1c(C)n(C)n(-c2ccccc2)c1=O)S(=O)(=O)c1ccc(C)cc1,inactive: 1.13%,–
CCc1nc2ccc(C(=O)N3CCN(c4cc(Cl)ccc4C)CC3)cc2nc1CC,inactive: -1.18%,–
Cc1ccc(S(=O)(=O)NCC2CCC(C(=O)NCCc3ccccc3)CC2)cc1 (stereo not given),inactive: 2.59%,–
CC(=O)Nc1ccc(S(=O)(=O)NC2(C(F)(F)F)C(=O)Nc3c2c(=O)[nH]c(=O)n3-c2cccc(Cl)c2)cc1 (stereo not given),inactive: 3.62%,–
CCOC(=O)c1cnc2cc(C(F)(F)F)ccc2c1Nc1ccc(F)cc1F,inactive: -16.9%,–
CCC(=O)N1CCc2cc(CNS(=O)(=O)c3cc(OC)ccc3OC)ccc21,inactive: 0%,–
